Marks after values point to notes of the source that are not given here.
System: IL-6 secretion, 3T3-L1 adipocytes
Experiment: IL-6 secretion in LPS/3T3-L1 adipocytes
Type: cell-based, murine
Conditions: 5.00 μg/ml (dose providing maximum inhibition); with 100 ng LPS/ml, D5 3T3-L1 adipocytes

COc1ccc2c(c1)c(CC(=O)O)c(C)n2C(=O)c1ccc(Cl)cc1 [indomethacin]
% Inhibition (IL-6 secretion, maximum): 53* %
